Source: patent US12285407B2, “Bis-indolylmethane derivatives and uses thereof” (The University of The West Indies, priority 2018, dated 2025)
Like-named read-outs stand apart in the source and are kept apart here.

Key:
MRSA = test: Adjuvant broth microdilution (antibiotic MIC with SP-BIM at 50 μg/mL); type: cell-based, Staphylococcus aureus; conditions: antibiotic alone
Bacillus cereus = test: Checkerboard synergy (FICI) of antibiotics with SP-BIM; type: cell-based; conditions: for MIC: 24 h, antibiotic alone, read-out: MIC antibiotic only
Escherichia coli [1] = test: as above; design: MIC in combination: Antibiotic: unit not given beside the values; conditions: for MIC: 24 h
Candida albicans = test: as above; design: MIC in combination: Antibiotic: unit not given beside the values
Staphylococcus aureus = test: as above; type: cell-based; conditions: for MIC: 24 h, antibiotic alone, read-out: MIC antibiotic only
Klebsiella pneumoniae [2] = test: Adjuvant broth microdilution (antibiotic MIC with SP-BIM at 50 μg/mL); type: cell-based; conditions: Klebsiella pneumonia, antibiotic alone
Streptococcus pneumoniae = test: Checkerboard synergy (FICI) of antibiotics with SP-BIM; type: cell-based; conditions: for MIC: 24 h, antibiotic alone, read-out: MIC antibiotic only
Enterobacter cloacae = test: Adjuvant broth microdilution (antibiotic MIC with SP-BIM at 50 μg/mL); type: cell-based; conditions: antibiotic alone
Enterococcus faecium = test: Checkerboard synergy (FICI) of antibiotics with SP-BIM; type: cell-based
Klebsiella pneumoniae [3] = test: as above; type: cell-based; conditions: for MIC: 24 h, antibiotic alone, read-out: MIC antibiotic only
Escherichia coli [4] = test: microbe, parasite or virus in culture; type: cell-based; conditions: antibiotic alone, Table 6, read-out: MIC of antibiotic, No compound
[5] = SP-BIM 9 in combination with the labelled antibiotic
[6] = SP-BIM 13 in combination with the labelled antibiotic
[7] = antibiotic in combination with SP-BIM 9
[8] = antibiotic in combination with SP-BIM 13
[9] = MIC of the antibiotic in combination with SP-BIM 13
[10] = Streptococcus pneumonia (title: Streptococcus pyogenes), antibiotic + SP-BIM 9
[11] = Streptococcus pneumoniae, antibiotic + SP-BIM 13

NC[C@H]1O[C@H](O[C@H]2[C@H](O)[C@@H](O[C@H]3O[C@H](CO)[C@@H](O)[C@H](N)[C@H]3O)[C@H](N)C[C@@H]2N)[C@H](O)[C@@H](O)[C@@H]1O [Kanamycin, kanamycin]
MIC (MRSA; Staphylococcus aureus, Table 4, read-out: MIC of antibiotic, No compound): 16 µg/mL | MIC of antibiotic, No Compound (MRSA; Table 8 (series SP-BIMs 21-29)): 8 µg/mL | MIC (Bacillus cereus; SP-BIM 9 checkerboard): 2 µg/mL | MIC (Bacillus cereus; SP-BIM 13 checkerboard): 2 µg/mL | MIC in combination, SP-BIM 9 (Bacillus cereus; SP-BIM 9 concentration in combination with the labelled antibiotic): 8 µg/mL | FIC of SP-BIM 9 (Bacillus cereus; [5]): 0.032 | FIC of SP-BIM 13 (Bacillus cereus; [6]): 0.5 | Interpretation (Bacillus cereus; antibiotic + SP-BIM 9): Synergy (Synergy: FICI≤0.5) | Σ FIC (Bacillus cereus; antibiotic + SP-BIM 9): <0.5 | Interpretation (Bacillus cereus; antibiotic + SP-BIM 13): Additive (Additive: FICI>0.5-1.0) | Σ FIC (Bacillus cereus; antibiotic + SP-BIM 13): 0.6 | MIC in combination, Antibiotic (Bacillus cereus; [7]): 1 µg/mL | MIC in combination, Antibiotic (Bacillus cereus; [8]): 0.25 µg/mL | FIC of antibiotic (Bacillus cereus; in combination with SP-BIM 9): 0.5 | FIC of antibiotic (Bacillus cereus; in combination with SP-BIM 13): 0.13 | MIC (Escherichia coli [1]; read-out: MIC antibiotic only, Escherichia coli, antibiotic alone): 32 µg/mL | MIC (Escherichia coli [1]; read-out: MIC antibiotic only, Escherichia coli, antibiotic alone, SP-BIM 9 checkerboard): 32 µg/mL | MIC in combination: Antibiotic (Escherichia coli [1]; [9]): 4 | FIC of SP-BIM 9 (Escherichia coli [1]; [5]): 0.032 | FIC of SP-BIM 13 (Escherichia coli [1]; [6]): 0.1 | Interpretation (Escherichia coli [1]; antibiotic + SP-BIM 9): Synergy (Synergy: FICI≤0.5) | Σ FIC (Escherichia coli [1]; antibiotic + SP-BIM 9): <0.1 | Interpretation (Escherichia coli [1]; antibiotic + SP-BIM 13): Synergy (Synergy: FICI≤0.5) | Σ FIC (Escherichia coli [1]; antibiotic + SP-BIM 13): <0.3 | MIC in combination, Antibiotic (Escherichia coli [1]; [7]): 2 µg/mL | FIC of antibiotic (Escherichia coli [1]; combination with SP-BIM 13): 0.1 | FIC of antibiotic (Escherichia coli [1]; in combination with SP-BIM 9): 0.0625 | MIC in combination: Antibiotic (Candida albicans; [9]): 4 | FIC of SP-BIM 13 (Candida albicans; [6]): 0.3 | Interpretation (Candida albicans; antibiotic + SP-BIM 13): Synergy (Synergy: FICI≤0.5) | Σ FIC (Candida albicans; antibiotic + SP-BIM 13): <0.3 | FIC of antibiotic (Candida albicans; combination with SP-BIM 13): 0.0 | MIC (Staphylococcus aureus; SP-BIM 9 checkerboard): 4 µg/mL | MIC (Staphylococcus aureus; SP-BIM 13 checkerboard): 4 µg/mL | FIC of SP-BIM 9 (Staphylococcus aureus; [5]): 0.02 | FIC of SP-BIM 13 (Staphylococcus aureus; [6]): 0.3 | Interpretation (Staphylococcus aureus; antibiotic + SP-BIM 9): Synergy (Synergy: FICI≤0.5) | Σ FIC (Staphylococcus aureus; antibiotic + SP-BIM 9): ≤0.27 | Interpretation (Staphylococcus aureus; antibiotic + SP-BIM 13): Synergy (Synergy: FICI≤0.5) | Σ FIC (Staphylococcus aureus; antibiotic + SP-BIM 13): 0.3 | MIC in combination, Antibiotic (Staphylococcus aureus; [7]): 1.0 µg/mL | MIC in combination, Antibiotic (Staphylococcus aureus; [8]): 0.25 µg/mL | FIC of antibiotic (Staphylococcus aureus; in combination with SP-BIM 9): 0.25 | FIC of antibiotic (Staphylococcus aureus; in combination with SP-BIM 13): 0.1 | MIC of antibiotic, No Compound (Klebsiella pneumoniae [2]): >250 µg/mL | FIC of SP-BIM 9 (Streptococcus pneumoniae; Streptococcus pneumonia (title: Streptococcus pyogenes), SP-BIM 9 in combination with the labelled antibiotic): 0.03 | Interpretation (Streptococcus pneumoniae; [10]): Synergy (Synergy: FICI≤0.5) | Σ FIC (Streptococcus pneumoniae; [10]): <0.16 | MIC in combination, Antibiotic (Streptococcus pneumoniae; Streptococcus pneumonia (title: Streptococcus pyogenes), antibiotic in combination with SP-BIM 9): 4 µg/mL | FIC of antibiotic (Streptococcus pneumoniae; Streptococcus pneumonia (title: Streptococcus pyogenes), in combination with SP-BIM 9): 0.13 | MIC (Streptococcus pneumoniae; Streptococcus pneumoniae, Streptococcus pneumonia (title: Streptococcus pyogenes), SP-BIM 9 checkerboard): 32 µg/mL | MIC (Streptococcus pneumoniae; Streptococcus pneumoniae, Streptococcus pneumoniae, SP-BIM 13 checkerboard): 32 µg/mL | FIC of SP-BIM 13 (Streptococcus pneumoniae; Streptococcus pneumoniae, SP-BIM 13 in combination with the labelled antibiotic): 0.3 | Interpretation (Streptococcus pneumoniae; [11]): Synergy (Synergy: FICI≤0.5) | Σ FIC (Streptococcus pneumoniae; [11]): <0.3 | MIC in combination, Antibiotic (Streptococcus pneumoniae; Streptococcus pneumoniae, antibiotic in combination with SP-BIM 13): 0.5 µg/mL | FIC of antibiotic (Streptococcus pneumoniae; Streptococcus pneumoniae, in combination with SP-BIM 13): 0.0 | MIC of antibiotic, No Compound (Enterobacter cloacae): 4 µg/mL | FIC of SP-BIM 13 (Enterococcus faecium; [6]): 0.3 | Interpretation (Enterococcus faecium; antibiotic + SP-BIM 13): Synergy (Synergy: FICI≤0.5) | Σ FIC (Enterococcus faecium; antibiotic + SP-BIM 13): <0.3 | MIC in combination, Antibiotic (Enterococcus faecium; [8]): 4 µg/mL | FIC of antibiotic (Enterococcus faecium; in combination with SP-BIM 13): 0.0 | MIC (Klebsiella pneumoniae [3]; SP-BIM 9 checkerboard): 4 µg/mL | MIC (Klebsiella pneumoniae [3]; SP-BIM 13 checkerboard): 4 µg/mL | FIC of SP-BIM 9 (Klebsiella pneumoniae [3]; [5]): 1 | FIC of SP-BIM 13 (Klebsiella pneumoniae [3]; [6]): 1.0 | Interpretation (Klebsiella pneumoniae [3]; antibiotic + SP-BIM 9): Indifferent (Indifferent: FICI>1.0-4.0) | Σ FIC (Klebsiella pneumoniae [3]; antibiotic + SP-BIM 9): <1.3 | Interpretation (Klebsiella pneumoniae [3]; antibiotic + SP-BIM 13): Indifferent (Indifferent: FICI>1.0-4.0) | Σ FIC (Klebsiella pneumoniae [3]; antibiotic + SP-BIM 13): <1.5 | MIC in combination, Antibiotic (Klebsiella pneumoniae [3]; [7]): 1 µg/mL | MIC in combination, Antibiotic (Klebsiella pneumoniae [3]; [8]): 2 µg/mL | FIC of antibiotic (Klebsiella pneumoniae [3]; in combination with SP-BIM 9): 0.25 | FIC of antibiotic (Klebsiella pneumoniae [3]; in combination with SP-BIM 13): 0.5 | MIC (Escherichia coli [4]): 32 µg/mL
